About 120 (0.75%) of roughly 16,000 compounds were called active. Inconclusive results (about 4%) are left out. Calls follow the shape of the dose curve; as a rule, active = well fitted inhibition curve with a large enough effect; inconclusive = small, poorly fitted or top-dose-only effect; inactive = no such curve, though single readings can be large or run the other way. The list shows a part of the results. Where a SMILES comes first, the peptide text is derived from it. [ ]: non-standard residue; d: D form.
What follows are compounds tested against Rap guanine nucleotide exchange factor 3 (Homo sapiens) (UniProt O95398) (assay: Validation qHTS for antagonist of cAMP-regulated guanine nucleotide exchange factor 3 (EPAC1)). Conditions: EPAC1 Rap1B-BODIPY-GDP exchange, fluorescence; series mostly up to 150 µM; activity change, negative = inhibition: at the top concentration.
Outline: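 Nucleotide exchange followed as fluorescence loss when BODIPY-GDP leaves Rap1B (480 nm excitation, 540 nm emission), read at 5 min intervals over 30 min. Reaction: 100 nM EPAC1, 250 nM RAP1B-BODIPY-GDP, 50 uM GDP; ATA and DMSO define normalization.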
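Also: plate controls were DMSO for no effect and ATA control for full effect; nearly all actives have a fitted effect of over 75% in size.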

Chain of UniProt O95398 (O95398 whole entry, looked up): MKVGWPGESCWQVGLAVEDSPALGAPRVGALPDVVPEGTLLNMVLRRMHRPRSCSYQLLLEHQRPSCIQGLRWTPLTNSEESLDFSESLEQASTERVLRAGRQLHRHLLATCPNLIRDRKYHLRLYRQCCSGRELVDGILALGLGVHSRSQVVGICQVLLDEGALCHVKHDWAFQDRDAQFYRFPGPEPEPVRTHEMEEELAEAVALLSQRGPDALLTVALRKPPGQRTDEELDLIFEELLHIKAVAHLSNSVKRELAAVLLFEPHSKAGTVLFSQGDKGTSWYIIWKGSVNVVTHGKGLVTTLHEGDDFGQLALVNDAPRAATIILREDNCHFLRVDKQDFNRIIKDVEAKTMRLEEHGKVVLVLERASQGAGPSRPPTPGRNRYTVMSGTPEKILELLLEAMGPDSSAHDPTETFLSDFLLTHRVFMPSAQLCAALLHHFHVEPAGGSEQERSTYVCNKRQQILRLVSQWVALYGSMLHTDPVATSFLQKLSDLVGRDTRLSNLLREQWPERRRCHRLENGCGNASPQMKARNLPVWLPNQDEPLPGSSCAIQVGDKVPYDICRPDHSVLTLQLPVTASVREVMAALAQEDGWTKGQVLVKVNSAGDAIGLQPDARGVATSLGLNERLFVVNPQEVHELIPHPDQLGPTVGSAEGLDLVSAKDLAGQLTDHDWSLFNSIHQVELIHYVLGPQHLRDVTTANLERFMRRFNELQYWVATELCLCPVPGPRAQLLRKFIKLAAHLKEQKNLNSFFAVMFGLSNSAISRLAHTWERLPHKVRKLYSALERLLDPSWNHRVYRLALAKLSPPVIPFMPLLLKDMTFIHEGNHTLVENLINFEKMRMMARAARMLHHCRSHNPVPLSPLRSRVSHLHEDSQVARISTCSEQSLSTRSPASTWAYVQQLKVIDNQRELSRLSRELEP

Activity change, negative = inhibition, inactive:
Cn1c2c(c(=O)c3ccccc31)C[C@@H](O)C(C)(C)O2 -13%, CCCCOC(=O)C(=O)Nc1cccc(-c2nn[nH]n2)c1 22.6%, O=C(Nc1ccc(Cl)c(C(F)(F)F)c1)[C@@H]1CC=C[C@@H]2CCN(C3CC3)C(=O)[C@@H]21 2.5%, CC1CC[C@@]2(OC1)OC1CC3C4CC=C5CC(O)CC[C@@]5(C)C4CC[C@]3(C)C1C2C (some centres undefined) 1.86%, Nc1c(CC(=O)O)cccc1C(=O)c1ccc(Br)cc1 15.9%, CCOC(=O)O[C@]1(C(=O)OCCl)CC[C@@H]2[C@H]3CCC4=CC(=O)C=C[C@]4(C)[C@@H]3[C@@H](O)C[C@@]21C 30.1%, Cc1cc(C(=O)Nc2ccccc2-c2nc(CNC(=O)C3COc4ccccc4O3)c(C)o2)c(C)o1 (centres undefined) 14.7%, NC[C@@H]1O[C@H](O[C@H]2[C@H](O)[C@H](O[C@H]3[C@@H](O)[C@H](N)C[C@H](N)[C@H]3O[C@H]3O[C@H](CN)[C@H](O)[C@H](O)[C@H]3N)O[C@@H]2CO)[C@@H](N)[C@@H](O)[C@@H]1O 21.7% [at 39.6 µM], OCCN1CCN(CCCN2c3ccccc3C=Cc3ccccc32)CC1, COCc1c(C(=O)N2CC3CCC2C3)cnn1-c1nccc(-c2ccccc2OC)n1 (centres undefined) 4.87%, Cc1[nH]c2ccccc2c1/C=C/c1ccnc2ccccc12 13.8%, COC(=O)C[C@H]1c2cc(C(F)(F)F)ccc2S(=O)(=O)N1Cc1ccc(OC)cc1 -4.26%, CCC(CCC(C)C1CCC2C3CCC4CC(O)CC[C@@]4(C)C3CC[C@@]12C)C(C)C (some centres undefined) 18%, C[C@@H]1CC[C@@]2(OC1)O[C@H]1C[C@H]3[C@@H]4CC[C@H]5C[C@@H](O)CC[C@]5(C)[C@H]4CC(=O)[C@]3(C)[C@H]1[C@@H]2C 23.6% [at 75.8 µM], CCCS(=O)(=O)NCc1c(C)ncc2c1CCN(C(=O)c1c(F)ccc(F)c1F)C2 19.8%, CCCC(=O)NCCc1c(I)[nH]c2ccc(OC)cc12 0.548%, COc1ccc2c(c1)-c1nc(-n3ncc(C(=O)NCC4CCCN(C)C4)c3C3CC3)ncc1CC2 (centres undefined) 15.1%, CN1C(=O)OC(C)(C)C1=O 8.63% [at 75.8 µM], CC(=O)CCCCn1c(=O)c2c(ncn2C)n(C)c1=O, CCCCC/C=C\C/C=C\C/C=C\C/C=C\CCCC(=O)O[C@@H](CO)COC(=O)CCCCCCCCCCCCCCCCC 8.85% [at 15.3 µM], COCC(=O)N1CCC[C@@]2(CCN(c3ccccn3)C2)C1 12.3%, Cn1cccc1C(=O)N1CCC2(CC1)CCN(c1ccncc1)CC2 35.7%, CC(C)NC(=O)c1cn(C2CCCN(C(=O)c3cc4ccccc4oc3=O)C2)nn1 (centres undefined) 1.04%, CN(C/C=C/c1ccccc1)Cc1cccc2ccccc12 -4.31%, O=c1c(-c2ccc(O)cc2)coc2cc(O)ccc12, COc1cccc(-c2cc(NCc3ccccc3)ncn2)c1 -12.9%, C[C@H](NC(CCc1ccccc1)C(=O)O)C(=O)N1CCC[C@H]1C(=O)O (some centres undefined) 30.2%, CN(C)Cc1ccccc1-c1cc(NCc2cccs2)ncn1 14.9%, CC(=O)OC1CC[C@]2(C)C(CC(OC(C)=O)[C@@]3(C)C4=CC(=O)OC(c5ccoc5)[C@]4(C)CCC23)C1(C)C (some centres undefined) -3.51%, CN(C)c1cccc2ccccc12 23.1%, CCCCC(CC)COS(=O)(=O)O (centres undefined) -7.64%, CC(C)NC[C@H](O)COc1cccc2ccccc12, COc1ccc(C(=O)N2CCC3(CC2)CN(CC(C)C)C3)cc1 -0.473%, CCn1c(-c2ccccc2F)nc2cc(NC(C)=O)cc(C(=O)NC(c3ccccn3)C(F)(F)F)c21 (centres undefined) 2.82%, C[C@H]1O[C@@H](n2cc(F)c(=O)[nH]c2=O)[C@H](O)[C@@H]1O 24.3%, CCN1CCCC1CNC(=O)c1cnn(-c2nccc(-c3ccccc3OC)n2)c1-c1ccco1 (centres undefined) 11.3%, O=[N+]([O-])c1nccn1CO[C@@H](CO)[C@H](O)CO -6.73%, Cc1ccc(CNc2ncnc3sc(C(=O)N4CCCCC4c4cccnc4)c(C)c23)o1 (centres undefined) -1.39%, FC(F)(F)c1ccccc1-c1cncnc1NCc1cccs1 -1.64%, N[C@@H](Cc1cc(CP(=O)(O)O)cc(-c2ccccc2Cl)c1)C(=O)O 5.93%, CC1(C)C(=O)C=C[C@]2(C)C1CC(=O)[C@]1(C)C2CC[C@@]2(C)C(c3ccoc3)OC(=O)C3O[C@@]321 (some centres undefined) 6.15%, O=C(O)[C@H](O)[C@@H](O)[C@H](O[C@@H]1O[C@H](CO)[C@H](O)[C@H](O)[C@H]1O)[C@H](O)CO 28.9% [at 75.8 µM], COc1ccc(SCCN2CC[C@@H](O)CCC2=O)cc1 0.0769%, COc1ccc(C(=O)N2CCC3(CCCN(CC(C)C)C3)CC2)cc1 15.7%, COc1cc2nc(CCc3nc4cc(OC)c(OC)cc4[nH]3)[nH]c2cc1OC 3.37%, COc1ccc(C(=O)O)c(O)c1OC 7.63%, CC(C(O)c1ccccc1)N(C)CCOC(c1ccccc1)c1ccccc1 (centres undefined) 24.4%, Cc1ccccc1-c1nc(-n2ccnc2)c2ccccc2n1 9.27%, COc1ccc(NC(=O)N2CC3(CCN(C(=O)c4c(C)noc4C)CC3)C2)cc1 16.1%, COc1ccccc1-c1ccc2ncnc(NC3CC3)c2c1 1.95%, Cc1cc(C)cc(OCC2CNC(=O)O2)c1 (centres undefined) 19%, CC(=O)O[C@H]1C[C@@H]2CC[C@@H]3[C@H](CC[C@@]4(C)[C@H]3C[C@H]([N+]3(C)CCCCC3)[C@@H]4OC(C)=O)[C@@]2(C)C[C@@H]1N1CCCCC1 17.6%, Cc1ccc(O)c(-n2nc3ccccc3n2)c1 -2.32%, Cc1c(C(=O)NCC2(N3CCOCC3)CCCCC2)cnn1-c1nccc(-c2ccccc2F)n1 16.5%, CC1CCCCN1CCCOC(=O)c1ccccc1 (centres undefined) 17%, CC(=O)NCCNc1nc(-c2ccc(N(C)C)cc2)nc2ccccc12 9.19%, CCCCCCCC/C=C\CCCCCCCC(=O)NCCO, CN(C)c1ncc2nc(CCc3ccccc3)c(=O)n(C[C@H]3CCCO3)c2n1 15.8%, COCCn1c(=O)c(-c2cccc(C#N)c2)nc2cnc(N3CCN(C)CC3)nc21 -4.6%, CN(C)c1ccc(-c2nc(N3CCNCC3)c3ccccc3n2)cc1 -1.29%, C[C@@H](O)[C@H]1C(=O)N2C(C(=O)O)=C(S[C@@H]3CN[C@H](C(=O)N(C)C)C3)[C@H](C)[C@H]12 9.81%, CC(=O)NCC(=O)N[C@H](CCC(=O)O)C(=O)O (Ac-Gly-[dE]-OH) 10.5%, COc1cccc(Cn2c(=O)c(-c3cc(F)cc(F)c3)nc3cnc(N4CCN(C)CC4)nc32)c1 16.7%, COC(=O)C1CCN(Cc2ccc3c(c2)CN(C(=O)c2cc4cc(F)ccc4[nH]2)CCO3)CC1 1.77%, NC(N)=NCCC[C@H](NC(=O)[C@@H](N)Cc1ccc(O)cc1)C(=O)O 22.3% [at 15.3 µM], OC/C=C/c1ccc(O)c(O)c1 11.6%, O=c1cc(-c2cccc(O)c2)oc2ccc(O)cc12 -18.3%, O=C(C[n+]1c(Cl)cc(Cl)c2ccccc21)c1ccccc1 21.5%, CC(=O)OC1CC2C(C)(C)C(=O)[C@@H]3OC3[C@@]2(C)C2CC[C@]3(C)C(=CC(=O)OC3c3ccoc3)[C@]12C (some centres undefined) 12%, CCCOC(=O)c1ccccc1O 27.3%, COC(=O)CCC(C)C1CCC2C3C(C[C@H](O)C12C)C1(C)CC[C@@H](O)CC1C[C@H]3O (some centres undefined) -6.45%, COc1cccc(Nc2ncc3ncc(=O)n(CCc4ccccc4)c3n2)c1 9.37%, FC(F)(F)c1ccccc1-c1nccc(NCCN2CCOCC2)n1 4.91%, COc1ccc2[nH]cc(CCNc3nc(-c4ccc(C(=O)N(C)C)cc4)nc4ccccc34)c2c1 -9.21%, O=C(NCCc1ccccn1)C1CC12CCN(C(=O)c1ccc(F)cc1Cl)CC2 (centres undefined) 8.03%, C[C@@H]1O[C@@H](OC[C@H]2O[C@@H](Oc3c(-c4ccc(OCCO)c(OCCO)c4)oc4cc(OCCO)cc(O)c4c3=O)[C@H](O)[C@@H](O)[C@@H]2O)[C@H](O)[C@H](O)[C@H]1O -3.98%, CCCCCCCCCCCCCCCC(=O)OC[C@H](COP(=O)([O-])OCC[N+](C)(C)C)OC(=O)CCCCCCCCCCCCCCC -10.1%, O=c1c(CCc2ccccc2)nc2cnc(Oc3cccc(Cl)c3)nc2n1C[C@H]1CCCO1 14.5%, Cc1cc(C)cc(CN2CCOc3ccc(CN4CCC(O)(c5cccnc5)CC4)cc3C2)c1 21.5%, O=C(Nc1cccc(F)c1)N1CCC2(CC1)CCN(C(=O)c1csnn1)CC2 7.12%, C[C@]12C=CC(=O)C=C1CC[C@H]1[C@@H]3C[C@@H](O)[C@](O)(C(=O)CO)[C@@]3(C)C[C@H](O)[C@@]12F, COc1cc(/C=C/C(=O)N2CCCCC2=O)cc(OC)c1OC -13.6%, O=c1c(-c2ccc(F)c(F)c2)nc2cncnc2n1-c1ccccc1 9.73%, CC1(C)O[C@@H]2C[C@H]3[C@@H]4CCC5=CC(=O)CC[C@]5(C)[C@@]4(F)[C@@H](O)C[C@]3(C)[C@]2(C(=O)CCl)O1 10.9% [at 75.8 µM], Cc1nc2cnc(N3CCNCC3)nc2n(Cc2ccc(F)cc2)c1=O 19.8%, O=C(Nc1ccc2c(c1)OCO2)O[C@@H]1C[C@H]2CCC(=O)N3CC[C@@H](C1)[C@@H]23 9.98%, COc1cc(OC)cc(C(=O)NCC2Cc3cccc(-c4nc(C)cnc4C)c3O2)c1 (centres undefined) 10.1%, COc1cc(=O)n2c(c1C(=O)NC(C)c1ccco1)CCN(Cc1ccccc1Cl)CC2 (centres undefined) 1.82%, CS(=O)(=O)N1CCC2(CC1)CN(Cc1nccs1)C2 9.26%, NCCNc1cccc2ccccc12 3.57%, CNCCCC12CCC(c3ccccc31)c1ccccc12, C/C=C/c1ccc(OC(C)[C@@H](O)c2ccc(O)c(OC)c2)c(OC)c1 (some centres undefined) 1.75%, Cc1cccc(CNc2ncncc2-c2cccc(NS(C)(=O)=O)c2)c1 -2.05%, Cc1ccccc1CN1CCc2nnc(C(C)NC(=O)c3cc(F)ccc3F)n2CC1 (centres undefined) 7.65%
